# This is one part of the list.
# B1: Cohesin-marm-DC-ASGPR-CRD (protein)
# chain: LDITSHHHHHHDDLDAVRIKVDTVNAKPGDTVRIPVRFSGIPSKGIANCDFVYSYDPNVLEIIEIEPGDIIVDPNPDKSFDTAVYPDRKIIVFLFAEDSGTGAYAITKDGVFATIVAKVKEGAPNGLSVIKFVEVGGFANNDLVEQKTQFFDGGVNVGDTTEPATPTTPVTTPTTTDDLDAASCPINWVEHQGSCYWFSRSGKTWPEAERYCQLENTHLVVINSREEQNFVQAHLGSAYTWMGLSDPEGVWKWVDGTDYSSGFQNWKPGQPDDWQGHGLGGGEDCAHFHPDGRWNDDVCQRSYHWVCEAGLTQASQDSH
# Assays:
# Test in all cases: glycan array binding signal (z-score within array); higher = stronger binding
# Conditions in all cases: glycan notation: IUPAC condensed, linker removed
# [1] = target: Fuc(a1-2)Gal(b1-4)GlcNAc(b1-3)Gal(b1-4)GlcNAc(b1-3)Gal(b1-4)GlcNAc
# Outline: (§1)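 The Consortium for Functional Glycomics database supplied 3228 glycan arrays, of which those lacking an available protein sequence were dropped. The binding signal, a within-array Z-score, was averaged across arrays of the same protein sequence and across linkers. Negative scores can be read as non-binding.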
# [2] = target: Fuc(a1-2)Gal(b1-4)GlcNAc(b1-3)GalNAc
# Outline: as §1
# [3] = target: Fuc(a1-2)Gal(b1-4)GlcNAc(b1-3)[Fuc(a1-2)Gal(b1-4)GlcNAc(b1-6)]GalNAc
# Outline: as §1
# [4] = target: Fuc(a1-2)Gal(b1-4)GlcNAc(b1-3)[Fuc(a1-3)[Gal(b1-4)]GlcNAc(b1-6)]Gal(b1-4)Glc
# Outline: as §1
# [5] = target: Fuc(a1-2)Gal(b1-4)GlcNAc(b1-6)GalNAc
# Outline: as §1
# [6] = target: Fuc(a1-2)Gal(b1-4)GlcNAc6S
# Outline: as §1
# [7] = target: Fuc(a1-2)Gal(b1-4)[Fuc(a1-3)]GlcNAc
# Outline: as §1
# [8] = target: Fuc(a1-2)Gal(b1-4)[Fuc(a1-3)]GlcNAc(b1-2)Man(a1-3)[Fuc(a1-2)Gal(b1-4)[Fuc(a1-3)]GlcNAc(b1-2)Man(a1-6)]Man(b1-4)GlcNAc(b1-4)[Fuc(a1-6)]GlcNAc
# Outline: as §1
# [9] = target: Fuc(a1-2)Gal(b1-4)[Fuc(a1-3)]GlcNAc(b1-2)[Fuc(a1-2)Gal(b1-4)[Fuc(a1-3)]GlcNAc(b1-4)]Man(a1-3)[Fuc(a1-2)Gal(b1-4)[Fuc(a1-3)]GlcNAc(b1-2)Man(a1-6)]Man(b1-4)GlcNAc(b1-4)GlcNAc
# Outline: as §1
# [10] = target: Fuc(a1-2)Gal(b1-4)[Fuc(a1-3)]GlcNAc(b1-3)Gal(b1-4)[Fuc(a1-3)]GlcNAc
# Outline: as §1
# [11] = target: Fuc(a1-2)Gal(b1-4)[Fuc(a1-3)]GlcNAc(b1-3)Gal(b1-4)[Fuc(a1-3)]GlcNAc(b1-3)Gal(b1-4)[Fuc(a1-3)]GlcNAc
# Outline: as §1
# [12] = target: Fuc(a1-2)Gal(b1-4)[Fuc(a1-3)]GlcNAc(b1-3)GalNAc
# Outline: as §1
# [13] = target: Fuc(a1-2)Gal(b1-4)[Fuc(a1-3)]GlcNAc(b1-3)[Neu5Ac(a2-6)Gal(b1-4)GlcNAc(b1-6)]Gal(b1-4)Glc
# Outline: as §1
# [14] = target: Fuc(a1-2)Gal3S(b1-4)GlcNAc
# Outline: as §1
# [15] = target: Fuc(a1-2)Gal6S(b1-3)GlcNAc
# Outline: as §1
# [16] = target: Fuc(a1-2)Gal6S(b1-3)GlcNAc6S
# Outline: as §1
# Fuc(a1-2)Gal6S(b1-4)Glc = target: Fuc(a1-2)Gal6S(b1-4)Glc
# Outline: as §1
# [17] = target: Fuc(a1-2)Gal6S(b1-4)Glc6S
# Outline: as §1
# Fuc(a1-2)[Gal(a1-3)]Gal = target: Fuc(a1-2)[Gal(a1-3)]Gal
# Outline: as §1
# [18] = target: Fuc(a1-2)[Gal(a1-3)]Gal(b1-3)GalNAc
# Outline: as §1
# [19] = target: Fuc(a1-2)[Gal(a1-3)]Gal(b1-3)GalNAc(b1-3)Gal(a1-4)Gal(b1-4)Glc
# Outline: as §1
# [20] = target: Fuc(a1-2)[Gal(a1-3)]Gal(b1-3)GlcNAc
# Outline: as §1
# [21] = target: Fuc(a1-2)[Gal(a1-3)]Gal(b1-3)GlcNAc(b1-2)Man(a1-3)[Fuc(a1-2)[Gal(a1-3)]Gal(b1-3)GlcNAc(b1-2)Man(a1-6)]Man(b1-4)GlcNAc(b1-4)GlcNAc
# Outline: as §1
# [22] = target: Fuc(a1-2)[Gal(a1-3)]Gal(b1-3)GlcNAc(b1-2)Man(a1-3)[Fuc(a1-2)[Gal(a1-3)]Gal(b1-3)GlcNAc(b1-2)Man(a1-6)]Man(b1-4)GlcNAc(b1-4)[Fuc(a1-6)]GlcNAc
# Outline: as §1
# [23] = target: Fuc(a1-2)[Gal(a1-3)]Gal(b1-3)GlcNAc(b1-3)GalNAc
# Outline: as §1
# [24] = target: Fuc(a1-2)[Gal(a1-3)]Gal(b1-3)GlcNAc(b1-6)GalNAc
# Outline: as §1
# [25] = target: Fuc(a1-2)[Gal(a1-3)]Gal(b1-4)Glc
# Outline: as §1
# [26] = target: Fuc(a1-2)[Gal(a1-3)]Gal(b1-4)GlcNAc
# Outline: as §1
# [27] = target: Fuc(a1-2)[Gal(a1-3)]Gal(b1-4)GlcNAc(b1-2)Man
# Outline: as §1
# [28] = target: Fuc(a1-2)[Gal(a1-3)]Gal(b1-4)GlcNAc(b1-2)Man(a1-3)[Fuc(a1-2)[Gal(a1-3)]Gal(b1-4)GlcNAc(b1-2)Man(a1-6)]Man(b1-4)GlcNAc(b1-4)GlcNAc
# Outline: as §1
binder,measurement,setting,value
B1,glycan array binding signal (z-score),[1],-0.447
same,glycan array binding signal (z-score),[2],-0.411
same,glycan array binding signal (z-score),[3],0.02
same,glycan array binding signal (z-score),[4],-0.447
same,glycan array binding signal (z-score),[5],2.67
same,glycan array binding signal (z-score),[6],-0.446
same,glycan array binding signal (z-score),[7],-0.4
same,glycan array binding signal (z-score),[8],-0.369
same,glycan array binding signal (z-score),[9],-0.323
same,glycan array binding signal (z-score),[10],-0.429
same,glycan array binding signal (z-score),[11],-0.35
same,glycan array binding signal (z-score),[12],-0.343
same,glycan array binding signal (z-score),[13],-0.455
same,glycan array binding signal (z-score),[14],-0.453
same,glycan array binding signal (z-score),[15],-0.408
same,glycan array binding signal (z-score),[16],0.194
same,glycan array binding signal (z-score),Fuc(a1-2)Gal6S(b1-4)Glc,-0.449
same,glycan array binding signal (z-score),[17],-0.428
same,glycan array binding signal (z-score),Fuc(a1-2)[Gal(a1-3)]Gal,-0.429
same,glycan array binding signal (z-score),[18],-0.443
same,glycan array binding signal (z-score),[19],-0.453
same,glycan array binding signal (z-score),[20],-0.102
same,glycan array binding signal (z-score),[21],-0.416
same,glycan array binding signal (z-score),[22],-0.434
same,glycan array binding signal (z-score),[23],-0.456
same,glycan array binding signal (z-score),[24],2.81
same,glycan array binding signal (z-score),[25],-0.171
same,glycan array binding signal (z-score),[26],-0.43
same,glycan array binding signal (z-score),[27],-0.426
same,glycan array binding signal (z-score),[28],-0.419
